Source: publication PMC4242493
The list shows a part of the results. The list includes weakly bound sequences.

What follows are sequences tested against MaxL homodimer (UniProt P61244) (assay: universal protein-binding microarray (PBM)). Settings: PBS-based mixture, 10 nM His-tagged protein dimer, 2% milk, 200 ng/uL BSA, 50 ng/uL salmon testes DNA, 0.02% TX-100; detection with Alexa 488 anti-His …; high values mean tight binding; most listed sequences are background and not binding sites; double strand, one strand shown.
Sequence of UniProt P61244 (P61244 whole entry): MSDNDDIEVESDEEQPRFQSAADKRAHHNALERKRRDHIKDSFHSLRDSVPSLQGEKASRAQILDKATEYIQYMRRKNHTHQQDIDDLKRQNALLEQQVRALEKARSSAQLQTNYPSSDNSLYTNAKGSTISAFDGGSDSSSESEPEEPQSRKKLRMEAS
In the case of CGGGCCGA, the binding signal (normalized occupancy) is reported as 0.067.
With CAACGGAC the binding signal (normalized occupancy) was 0.0686.
Sequence CTAGACCC has a binding signal (normalized occupancy) of 0.0767.
Work on CCTCTCGA yielded a binding signal (normalized occupancy) of 0.072.
With ATATTTCA the binding signal (normalized occupancy) was 0.0816.
In the case of AGCGAAAC, the binding signal (normalized occupancy) is reported as 0.0671.
In the case of TACCACGA, the binding signal (normalized occupancy) is reported as 0.0924.
For GATCTGAC, the binding signal (normalized occupancy) was 0.0768.
CTTCCAAG showed a binding signal (normalized occupancy) of 0.0703.
Work on CACCAGCC yielded a binding signal (normalized occupancy) of 0.0747.
CCGAGACA was tested, and the binding signal (normalized occupancy) was 0.0692.
Work on GCGGGACC yielded a binding signal (normalized occupancy) of 0.0689.
CCACGTTA showed a binding signal (normalized occupancy) of 0.105.
In the case of GAGTCTAC, the binding signal (normalized occupancy) is reported as 0.0665.
Work on GTGGGAGA yielded a binding signal (normalized occupancy) of 0.0773.
Work on AATAGAGC yielded a binding signal (normalized occupancy) of 0.0803.
ACGCGGTC showed a binding signal (normalized occupancy) of 0.0818.
With CCAAAGTC the binding signal (normalized occupancy) was 0.0703.
In the case of CACGCTGC, the binding signal (normalized occupancy) is reported as 0.131.
Work on AAGCTCAC yielded a binding signal (normalized occupancy) of 0.0688.
Work on TCGTTGCA yielded a binding signal (normalized occupancy) of 0.0775.
Work on CGCGTGCC yielded a binding signal (normalized occupancy) of 0.118.
TGACGTAA showed a binding signal (normalized occupancy) of 0.0817.
ACTTTCAC gave a binding signal (normalized occupancy) of 0.0729.
For GGTTGCAA, the binding signal (normalized occupancy) was 0.0715.
Work on GCGCAACA yielded a binding signal (normalized occupancy) of 0.0706.
ACACTAAC gave a binding signal (normalized occupancy) of 0.0775.
With GGGAACCA the binding signal (normalized occupancy) was 0.0799.
AATTCTTC showed a binding signal (normalized occupancy) of 0.0696.
CTCGGCCA was tested, and the binding signal (normalized occupancy) was 0.0708.
Sequence CCGACGCC has a binding signal (normalized occupancy) of 0.075.
In the case of TACTCTCA, the binding signal (normalized occupancy) is reported as 0.0739.
Sequence CGCACACA has a binding signal (normalized occupancy) of 0.0821.
GTAACCCA was tested, and the binding signal (normalized occupancy) was 0.0809.
GAATTACA gave a binding signal (normalized occupancy) of 0.0731.
ATGGGATC showed a binding signal (normalized occupancy) of 0.0817.
ATGCTCAC gave a binding signal (normalized occupancy) of 0.0841.
GGACTGAA gave a binding signal (normalized occupancy) of 0.0704.
AGGACACT showed a binding signal (normalized occupancy) of 0.0776.
With ACCGTGGC the binding signal (normalized occupancy) was 0.0752.
CAATGCTC gave a binding signal (normalized occupancy) of 0.0774.
Sequence ACAGTGTC has a binding signal (normalized occupancy) of 0.0743.
Work on AGACCCTC yielded a binding signal (normalized occupancy) of 0.0752.
With AGAGATAC the binding signal (normalized occupancy) was 0.073.
CTGTTTAA showed a binding signal (normalized occupancy) of 0.0701.
In the case of CACCCATA, the binding signal (normalized occupancy) is reported as 0.0892.
CTGATTTC showed a binding signal (normalized occupancy) of 0.073.
CCAAGAAC showed a binding signal (normalized occupancy) of 0.071.
AAGGCTAA showed a binding signal (normalized occupancy) of 0.0716.
Work on TTGGTAAA yielded a binding signal (normalized occupancy) of 0.0726.
Work on GATTAAAC yielded a binding signal (normalized occupancy) of 0.0753.
CACTTTCC was tested, and the binding signal (normalized occupancy) was 0.0749.
GATCCGCC was tested, and the binding signal (normalized occupancy) was 0.0714.
ACATCCCC gave a binding signal (normalized occupancy) of 0.0859.
For CTGGAGCC, the binding signal (normalized occupancy) was 0.0725.
In the case of ATCACACA, the binding signal (normalized occupancy) is reported as 0.0852.
Work on ACAAACCT yielded a binding signal (normalized occupancy) of 0.0779.
With CTATAGTA the binding signal (normalized occupancy) was 0.0737.
AAGTGCCG was tested, and the binding signal (normalized occupancy) was 0.0706.
With GACTAAGA the binding signal (normalized occupancy) was 0.0651.
In the case of CGTATGTA, the binding signal (normalized occupancy) is reported as 0.0885.
Sequence GCTGACAC has a binding signal (normalized occupancy) of 0.0763.
In the case of AGGAAGTG, the binding signal (normalized occupancy) is reported as 0.0694.
CTTGCACA was tested, and the binding signal (normalized occupancy) was 0.0801.
For CCCGTGGA, the binding signal (normalized occupancy) was 0.0823.
Sequence CCGAAGTA has a binding signal (normalized occupancy) of 0.0696.
Sequence AAGCGTGA has a binding signal (normalized occupancy) of 0.0961.
In the case of CACTAATC, the binding signal (normalized occupancy) is reported as 0.0751.
GCAGTTAA showed a binding signal (normalized occupancy) of 0.07.
AAGCACGA was tested, and the binding signal (normalized occupancy) was 0.0867.
ACCATGGA was tested, and the binding signal (normalized occupancy) was 0.0861.
Sequence TAAACATA has a binding signal (normalized occupancy) of 0.083.
With ACCTTCGT the binding signal (normalized occupancy) was 0.072.
With AGCCTCAA the binding signal (normalized occupancy) was 0.0701.
In the case of AGTTCTAA, the binding signal (normalized occupancy) is reported as 0.0746.
In the case of CGTGATGC, the binding signal (normalized occupancy) is reported as 0.0891.
AACTGATA was tested, and the binding signal (normalized occupancy) was 0.0775.
With GTATATGA the binding signal (normalized occupancy) was 0.0886.
Work on AGATCAAG yielded a binding signal (normalized occupancy) of 0.0766.
Work on AAGATCTA yielded a binding signal (normalized occupancy) of 0.0775.
CCTTAACA was tested, and the binding signal (normalized occupancy) was 0.0794.
Sequence CCCTACCG has a binding signal (normalized occupancy) of 0.076.
Sequence CCTGGAAC has a binding signal (normalized occupancy) of 0.0734.
TAACTGAA gave a binding signal (normalized occupancy) of 0.073.
In the case of CTCCAGAC, the binding signal (normalized occupancy) is reported as 0.069.
AATGCGTA showed a binding signal (normalized occupancy) of 0.0846.
In the case of ACATCGCG, the binding signal (normalized occupancy) is reported as 0.0757.
In the case of AATAGTGC, the binding signal (normalized occupancy) is reported as 0.0733.
In the case of ACCCCAAG, the binding signal (normalized occupancy) is reported as 0.0753.
GCTTAGAC showed a binding signal (normalized occupancy) of 0.0762.
For GAGACTAC, the binding signal (normalized occupancy) was 0.0744.
GATCGTCC was tested, and the binding signal (normalized occupancy) was 0.0702.
GTTCGATA gave a binding signal (normalized occupancy) of 0.0744.
Work on CGAACATC yielded a binding signal (normalized occupancy) of 0.0771.
ACTTAAAT gave a binding signal (normalized occupancy) of 0.0746.
GATAGGAC showed a binding signal (normalized occupancy) of 0.0775.
For ATTCAAAA, the binding signal (normalized occupancy) was 0.0721.
Work on TGCTTCAA yielded a binding signal (normalized occupancy) of 0.0792.
AGCGACCT gave a binding signal (normalized occupancy) of 0.0668.
In the case of CGATGCCC, the binding signal (normalized occupancy) is reported as 0.0786.
GAGTGCAC was tested, and the binding signal (normalized occupancy) was 0.082.
Sequence AGCCATTC has a binding signal (normalized occupancy) of 0.0723.
In the case of AACATCTT, the binding signal (normalized occupancy) is reported as 0.0763.
Sequence AAGCCGAC has a binding signal (normalized occupancy) of 0.0686.
In the case of CTCGCATC, the binding signal (normalized occupancy) is reported as 0.0773.
CTCATGAA showed a binding signal (normalized occupancy) of 0.0856.
ACTCATAT showed a binding signal (normalized occupancy) of 0.0838.
With ATTCTGGA the binding signal (normalized occupancy) was 0.0737.
In the case of AAAAACTA, the binding signal (normalized occupancy) is reported as 0.0735.
ATTGGCAG gave a binding signal (normalized occupancy) of 0.0726.
